Source: the supplement of paper PMC10037445
“And” between values parts separate entries of the source, which are not always exact repeats. Equal entries are not always repeated. ± gives the standard deviation of the averaged measurements. In all, about 2,900 compounds were measured (“NF-kB SEAP reporter activity, fold change vs agonist alone”: median about 0.99, highest 2% from about 2.6 on). The list shows a part of the results.

Assays:
RAW-Dual [1] = experiment: NF-kB SEAP reporter activity, fold change vs agonist alone; higher = enhanced NF-kB activity; conditions: cytotoxicity flag (confluency mask): not cytotoxic
Summary of the method: (§1)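 Reporter activity is given as fold change relative to agonist-alone wells. To measure it, 50 nL of library stock was pin-tooled onto RAW-Dual macrophages (50,000 cells/well, DMEM, 384-well plates), a PRR agonist followed 1 h later, and cells stayed at 37 °C, 5% CO2. Twenty hours on, supernatant was assayed for IRF (QuantiLuc luminescence) and NF-κB (QuantiBlue, 620 nm absorbance), and wells under 70% of agonist-control IncuCyte confluency in both mask sets were marked cytotoxic.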

RAW-Dual [2] = experiment: NF-kB SEAP reporter activity, fold change vs agonist alone; cytotoxicity flag (confluency mask): not cytotoxic; higher = enhanced NF-kB activity
Summary of the method: as §1

[3] = library stock concentration (final ~1000-fold dilution): 10 mM, agonist: Imiquimod (TLR7) […]
[4] = library stock concentration (final ~1000-fold dilution): 10 mM, agonist: MPLA (TLR4) […]
[5] = agonist: ODN 1826 (TLR9) 0.5 ug/mL
[6] = agonist: Pam2CSK4 (TLR2/6) 0.1 ug/mL
[7] = agonist: Pam3CSK4 (TLR2/1) 0.1 ug/mL

COc1ccc(C2OCC3C(c4ccc(OC)c(OC)c4)OCC23)cc1OC (stereo not drawn)
NF-kB SEAP reporter activity (RAW-Dual [1]; [3]): 0.74 | NF-kB SEAP reporter activity (RAW-Dual [1]; [4]): 1.19

COc1ccc(C2OCC3C(c4ccc(OC)c(OC)c4)OCC23)cc1OC (stereo not drawn) (library stock concentration (final ~1000-fold dilution): 10 mM)
NF-kB SEAP reporter activity (RAW-Dual [2]; agonist: LPS (TLR4) 0.1 ug/mL): 1.39 | NF-kB SEAP reporter activity (RAW-Dual [2]; [5]): 1.18 | NF-kB SEAP reporter activity (RAW-Dual [2]; [6]): 1.22 | NF-kB SEAP reporter activity (RAW-Dual [2]; [7]): 1.42

Cc1c(C)c2c(c(C)c1O)CCC(C)(C(=O)O)O2 (stereo not drawn) (library stock concentration (final ~1000-fold dilution): 10 mM)
NF-kB SEAP reporter activity (RAW-Dual [2]; agonist: LPS (TLR4) 0.1 ug/mL): 1.06 and 1.28 | NF-kB SEAP reporter activity (RAW-Dual [2]; [5]): 0.942 and 1.08 | NF-kB SEAP reporter activity (RAW-Dual [2]; [6]): 0.884 and 1.06 | NF-kB SEAP reporter activity (RAW-Dual [2]; [7]): 0.71 and 1.14

N.S=C(S)N1CCCC1 (library stock concentration (final ~1000-fold dilution): 10 mM)
NF-kB SEAP reporter activity (RAW-Dual [2]; agonist: LPS (TLR4) 0.1 ug/mL): 1.55 ± 0.34 | NF-kB SEAP reporter activity (RAW-Dual [2]; [5]): 1.04 ± 0.043 | NF-kB SEAP reporter activity (RAW-Dual [2]; [6]): 0.967 ± 0.17 | NF-kB SEAP reporter activity (RAW-Dual [2]; [7]): 0.965 ± 0.042

N.S=C(S)N1CCCC1
NF-kB SEAP reporter activity (RAW-Dual [1]; [3]): 1.15 ± 0.22 | NF-kB SEAP reporter activity (RAW-Dual [1]; [4]): 1.5 ± 0.35

CC(=O)OCC(=O)NCCCOc1cccc(CN2CCCCC2)c1.Cl
NF-kB SEAP reporter activity (RAW-Dual [1]; [3]): 0.935 | NF-kB SEAP reporter activity (RAW-Dual [1]; [4]): 0.985

CC(=O)OCC(=O)NCCCOc1cccc(CN2CCCCC2)c1.Cl (library stock concentration (final ~1000-fold dilution): 10 mM)
NF-kB SEAP reporter activity (RAW-Dual [2]; agonist: LPS (TLR4) 0.1 ug/mL): 1.01 | NF-kB SEAP reporter activity (RAW-Dual [2]; [5]): 0.971 | NF-kB SEAP reporter activity (RAW-Dual [2]; [6]): 0.943 | NF-kB SEAP reporter activity (RAW-Dual [2]; [7]): 1.08

CCOC1OC(=O)CC1NC(=O)C1CCCN1C(=O)C(NC(=O)c1ccc(N)c(Cl)c1)C(C)(C)C (stereo not drawn) (library stock concentration (final ~1000-fold dilution): 10 mM)
NF-kB SEAP reporter activity (RAW-Dual [2]; agonist: LPS (TLR4) 0.1 ug/mL): 0.973 | NF-kB SEAP reporter activity (RAW-Dual [2]; [5]): 1 | NF-kB SEAP reporter activity (RAW-Dual [2]; [6]): 1 | NF-kB SEAP reporter activity (RAW-Dual [2]; [7]): 0.976

CCOC1OC(=O)CC1NC(=O)C1CCCN1C(=O)C(NC(=O)c1ccc(N)c(Cl)c1)C(C)(C)C (stereo not drawn)
NF-kB SEAP reporter activity (RAW-Dual [1]; [3]): 0.911 | NF-kB SEAP reporter activity (RAW-Dual [1]; [4]): 0.995

CN1CCN(c2ccc(Nc3ncc4cc(C#N)c(=O)n(C5CCCC5)c4n3)cc2)CC1
NF-kB SEAP reporter activity (RAW-Dual [1]; [3]): 1.02 | NF-kB SEAP reporter activity (RAW-Dual [1]; [4]): 1.33

CN1CCN(c2ccc(Nc3ncc4cc(C#N)c(=O)n(C5CCCC5)c4n3)cc2)CC1 (library stock concentration (final ~1000-fold dilution): 10 mM)
NF-kB SEAP reporter activity (RAW-Dual [2]; agonist: LPS (TLR4) 0.1 ug/mL): 1.35 | NF-kB SEAP reporter activity (RAW-Dual [2]; [5]): 0.9 | NF-kB SEAP reporter activity (RAW-Dual [2]; [6]): 0.404 | NF-kB SEAP reporter activity (RAW-Dual [2]; [7]): 0.601

CCCC1CC(C(=O)NC(C(C)Cl)C2OC(SC)C(O)C(O)C2O)N(C)C1.Cl.O (stereo not drawn)
NF-kB SEAP reporter activity (RAW-Dual [1]; [4]): 1.07

CCCC1CC(C(=O)NC(C(C)Cl)C2OC(SC)C(O)C(O)C2O)N(C)C1.Cl.O (stereo not drawn) (library stock concentration (final ~1000-fold dilution): 10 mM)
NF-kB SEAP reporter activity (RAW-Dual [2]; agonist: LPS (TLR4) 0.1 ug/mL): 1.29 | NF-kB SEAP reporter activity (RAW-Dual [2]; [5]): 0.918 | NF-kB SEAP reporter activity (RAW-Dual [2]; [6]): 0.831 | NF-kB SEAP reporter activity (RAW-Dual [2]; [7]): 0.973

O=c1cc(-c2ccccc2)oc2cc(O)c(O)c(O)c12
NF-kB SEAP reporter activity (RAW-Dual [1]; [3]): 0.894 | NF-kB SEAP reporter activity (RAW-Dual [1]; [4]): 0.999

O=c1cc(-c2ccccc2)oc2cc(O)c(O)c(O)c12 (library stock concentration (final ~1000-fold dilution): 10 mM)
NF-kB SEAP reporter activity (RAW-Dual [2]; agonist: LPS (TLR4) 0.1 ug/mL): 0.932 | NF-kB SEAP reporter activity (RAW-Dual [2]; [5]): 0.703 | NF-kB SEAP reporter activity (RAW-Dual [2]; [6]): 0.878 | NF-kB SEAP reporter activity (RAW-Dual [2]; [7]): 0.544

CCN(CC)C(=O)C(c1ccccc1)N1CCN(c2ccc(NC(=O)c3ccccc3-c3cccnc3)cc2F)CC1 (stereo not drawn) (library stock concentration (final ~1000-fold dilution): 10 mM)
NF-kB SEAP reporter activity (RAW-Dual [2]; agonist: LPS (TLR4) 0.1 ug/mL): 1.49 | NF-kB SEAP reporter activity (RAW-Dual [2]; [5]): 0.989 | NF-kB SEAP reporter activity (RAW-Dual [2]; [6]): 0.932 | NF-kB SEAP reporter activity (RAW-Dual [2]; [7]): 0.897

CCN(CC)C(=O)C(c1ccccc1)N1CCN(c2ccc(NC(=O)c3ccccc3-c3cccnc3)cc2F)CC1 (stereo not drawn)
NF-kB SEAP reporter activity (RAW-Dual [1]; [3]): 1.01 | NF-kB SEAP reporter activity (RAW-Dual [1]; [4]): 1.03

O=c1[nH]c(=O)c2nc3ccccc3nc2[nH]1
NF-kB SEAP reporter activity (RAW-Dual [1]; library stock concentration (final ~1000-fold dilution): 2 mM, agonist: MPLA (TLR4) […]): 0.967

O=c1[nH]c(=O)c2nc3ccccc3nc2[nH]1 (library stock concentration (final ~1000-fold dilution): 2 mM)
NF-kB SEAP reporter activity (RAW-Dual [2]; agonist: LPS (TLR4) 0.1 ug/mL): 1.13 | NF-kB SEAP reporter activity (RAW-Dual [2]; [5]): 0.987 | NF-kB SEAP reporter activity (RAW-Dual [2]; [6]): 1.03 | NF-kB SEAP reporter activity (RAW-Dual [2]; [7]): 1.05

COC(=O)C1=C(C)NC(C)=C(C(=O)OC(C)(C)CN(C)CCC(c2ccccc2)c2ccccc2)C1c1cccc([N+](=O)[O-])c1.Cl (stereo not drawn) (library stock concentration (final ~1000-fold dilution): 10 mM)
NF-kB SEAP reporter activity (RAW-Dual [2]; agonist: LPS (TLR4) 0.1 ug/mL): 1.21 | NF-kB SEAP reporter activity (RAW-Dual [2]; [5]): 0.335 | NF-kB SEAP reporter activity (RAW-Dual [2]; [6]): 0.449 | NF-kB SEAP reporter activity (RAW-Dual [2]; [7]): 0.363

COC(=O)C1=C(C)NC(C)=C(C(=O)OC(C)(C)CN(C)CCC(c2ccccc2)c2ccccc2)C1c1cccc([N+](=O)[O-])c1.Cl (stereo not drawn)
NF-kB SEAP reporter activity (RAW-Dual [1]; [3]): 0.526 | NF-kB SEAP reporter activity (RAW-Dual [1]; [4]): 1.35

CC(=O)N[C@@H](CS)C(=O)O
NF-kB SEAP reporter activity (RAW-Dual [1]; [3]): 1 | NF-kB SEAP reporter activity (RAW-Dual [1]; [4]): 1

CC(=O)N[C@@H](CS)C(=O)O (library stock concentration (final ~1000-fold dilution): 10 mM)
NF-kB SEAP reporter activity (RAW-Dual [2]; agonist: LPS (TLR4) 0.1 ug/mL): 1.24 | NF-kB SEAP reporter activity (RAW-Dual [2]; [5]): 1.1 | NF-kB SEAP reporter activity (RAW-Dual [2]; [6]): 1.08 | NF-kB SEAP reporter activity (RAW-Dual [2]; [7]): 1.09

CC1COCCN1c1cc(C2(S(C)(=N)=O)CC2)nc(-c2ccnc3[nH]ccc23)n1 (stereo not drawn)
NF-kB SEAP reporter activity (RAW-Dual [1]; [3]): 1.19 | NF-kB SEAP reporter activity (RAW-Dual [1]; [4]): 1.34

CC1COCCN1c1cc(C2(S(C)(=N)=O)CC2)nc(-c2ccnc3[nH]ccc23)n1 (stereo not drawn) (library stock concentration (final ~1000-fold dilution): 10 mM)
NF-kB SEAP reporter activity (RAW-Dual [2]; agonist: LPS (TLR4) 0.1 ug/mL): 2.49 | NF-kB SEAP reporter activity (RAW-Dual [2]; [5]): 0.863 | NF-kB SEAP reporter activity (RAW-Dual [2]; [6]): 0.82 | NF-kB SEAP reporter activity (RAW-Dual [2]; [7]): 0.97

NC(=O)OCC(COC(N)=O)c1ccccc1 (library stock concentration (final ~1000-fold dilution): 10 mM)
NF-kB SEAP reporter activity (RAW-Dual [2]; agonist: LPS (TLR4) 0.1 ug/mL): 0.921 | NF-kB SEAP reporter activity (RAW-Dual [2]; [5]): 1.04 | NF-kB SEAP reporter activity (RAW-Dual [2]; [6]): 1.05 | NF-kB SEAP reporter activity (RAW-Dual [2]; [7]): 1.05
